These are yes or no findings as the source states them, for the method shown. Some binding calls cover weakened binding; strength is not graded here. For some assays here: Tags and fused reporters may be left off the sequences shown.
T1: rat CD137 on the cell surface (rat) (UniProt Q4W8J3)
T1 sequence: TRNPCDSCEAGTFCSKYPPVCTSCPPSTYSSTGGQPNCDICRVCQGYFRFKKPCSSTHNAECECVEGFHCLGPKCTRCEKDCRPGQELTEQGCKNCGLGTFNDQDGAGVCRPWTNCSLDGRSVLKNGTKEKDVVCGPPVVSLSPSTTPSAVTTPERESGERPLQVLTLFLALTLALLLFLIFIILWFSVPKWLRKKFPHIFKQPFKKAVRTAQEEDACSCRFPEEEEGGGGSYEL

The chains behind the UniProt entries cited, without tags or fusion partners. Where a name states a change or a piece, a line headed by the entry shows the natural chain unless it says otherwise.
UniProt Q07011: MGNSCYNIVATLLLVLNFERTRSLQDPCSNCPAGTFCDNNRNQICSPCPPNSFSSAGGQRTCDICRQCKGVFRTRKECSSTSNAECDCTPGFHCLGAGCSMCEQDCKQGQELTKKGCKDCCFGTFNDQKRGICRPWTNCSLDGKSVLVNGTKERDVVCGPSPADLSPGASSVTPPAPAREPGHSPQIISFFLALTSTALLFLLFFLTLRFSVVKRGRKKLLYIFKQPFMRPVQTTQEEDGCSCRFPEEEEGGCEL

T2: mouse CD137 fused with human FC fragment (mouse) (UniProt P20334)
T2 sequence: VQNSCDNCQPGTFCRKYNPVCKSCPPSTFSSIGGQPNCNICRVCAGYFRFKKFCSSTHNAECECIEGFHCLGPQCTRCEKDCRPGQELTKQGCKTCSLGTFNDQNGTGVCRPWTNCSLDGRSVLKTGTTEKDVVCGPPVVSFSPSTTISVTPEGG


How the values were obtained:
[1] = target: T1, rat CD137 on the cell surface (rat); experiment: flow cytometry, HEK293F
[2] = target: full-length human CD137 on the cell surface (human) (UniProt Q07011); experiment: flow cytometry, HEK293F
[3] = target: full-length human CD137 on the cell surface (human) (UniProt Q07011); experiment: flow cytometry, HEK293F cells expressing CD137 or mutant [Cont.]
[4] = target: full-length human CD137 on the cell surface (human) (UniProt Q07011); experiment: flow cytometry, yeast display
[5] = target: Hu_CRD1-CRD2-CRD3 (human) (UniProt Q07011); experiment: flow cytometry, yeast display
[6] = target: T1, rat CD137 on the cell surface (rat); experiment: flow cytometry, HEK293F cells expressing CD137 [Cont.]
[7] = target: full-length human CD137 on the cell surface (human) (UniProt Q07011); experiment: summary of Example 4
[8] = target: full-length human CD137 on the cell surface (human) (UniProt Q07011); experiment: flow cytometry
[9] = target: full-length human CD137 on the cell surface (human) (UniProt Q07011); experiment: flow cytometry, HEK293F cells expressing CD137
[10] = target: full-length human CD137 on the cell surface (human) (UniProt Q07011); experiment: flow cytometry, HEK293F cells expressing CD137, IgG 100 nM [Cont.]
[11] = target: full-length human CD137 on the cell surface (human) (UniProt Q07011); experiment: flow cytometry, HEK293F, 100 nM
[12] = target: Hu_CRD1-CRD2-CRD3 (human) (UniProt Q07011); experiment: flow cytometry, yeast display [Cont.]
[13] = target: full-length human CD137 on the cell surface (human) (UniProt Q07011); experiment: flow cytometry, PMA/ionomycin-activated human T cells, antibody 100 nM
[14] = target: full-length human CD137 on the cell surface (human) (UniProt Q07011); experiment: flow cytometry, HEK293F cells expressing the receptor, antibody 100 nM [Cont.]
[15] = target: T2, mouse CD137 fused with human FC fragment (mouse); experiment: ELISA, Fab captured by anti-human IgG (Fab specific), CD137-Fc added, anti-human Fc-HRP
[16] = target: T2, mouse CD137 fused with human FC fragment (mouse); experiment: ELISA, captured Fab, CD137-Fc

| Binder | binding [1] | binding [2] | binding [3] | binding [4] | binding [5] | binding [7] | binding [8] | binding [9] | binding [10] | binding [11] | binding [12] | binding [13] | binding [14] | binding [15] | binding [16] | binding [6] |
| --- | --- | --- | --- | --- | --- | --- | --- | --- | --- | --- | --- | --- | --- | --- | --- | --- |
| AG10058 (antibody, human IgG4 S228P, kappa, V domains shown) VH: EVQLVESGGGLVQPGGSLRLSCAASGFSLSTSGVGVGWIRQAPGKGLEWLALIDWDDDKYYSPSLKSRLTISRDNSKNTLYLQLNSLRAEDTAVYYCARGGSDTVLGDWFAYWGQGTLVTVSS VL: DIQLTQSPSSLSASVGDRVTITCRASQSVSPYLAWYQQKPGKAPKLLIYDASSLESGVPSRFSGSGSGTDFTLTISSLQPEDFATYYCQQGYSLWTFGQGTKVEIKR | no binding | binds | binds | binds | binds | binds | binds | binds | binds | binds | binds | binds | binds | – | – | no binding (tested: 100 nM (text paragraph 220)) |
| AG10059 (antibody, human IgG4 S228P, kappa, V domains shown) VH: EVQLVESGGGLVQPGGSLRLSCAASGYSITSGHYWAWIRQAPGKGLEWVSSISGYGSTTYYADSVKGRFTISRDNSKNTLYLQLNSLRAEDTAVYYCARGGSDAVLGDWFAYWGQGTLVTVSS VL: DIQLTQSPSSLSASVGDRVTITCRASQGIGSFLAWYQQKPGKAPKLLIYDASNLETGVPSRFSGSGSGTDFTLTISSLQPEDFATYYCQQGYYLWTFGQGTKVEIKR | – | binds | binds | binds | binds | – | binds | binds | binds | binds | binds | binds | binds | – | – | – |

Second part, led by results:

| binding [1] | binding [2] | binding [3] | binding [4] | binding [5] | binding [7] | binding [8] | binding [9] | binding [10] | binding [11] | binding [12] | binding [13] | binding [14] | binding [15] | binding [16] | Binder | binding [6] |
| --- | --- | --- | --- | --- | --- | --- | --- | --- | --- | --- | --- | --- | --- | --- | --- | --- |
| – | – | – | – | – | – | – | – | – | – | – | – | – | binds | binds | Fab 5365 (Fab, V domains shown) VH: EVQLVESGGGLVQPGGSLRLSCAASGFSLSTGGVGVGWIRQAPGKGLEWLALIDWADDKYYSPSLKSRLTISRDNSKNTLYLQLNSLRAEDTAVYYCARGGSDTVIGDWFAYWGQGTLVTVSS VL: DIQLTQSPSSLSASVGDRVTITCRASQSIGSYLAWYQQKPGKAPKLLIYDASNLETGVPSRFSGSGSGTDFTLTISSLQPEDFATYYCQQGYYLWTFGQGTKVEIKR | – |
| – | – | – | – | – | – | – | – | – | – | – | – | – | binds | binds | Fab 5310 (Fab, V domains shown) VH: EVQLVESGGGLVQPGGSLRLSCAASGFSLSTSGVGVGWIRQAPGKGLEWLALIDWDDDKYYSPSLKSRLTISRDNSKNTLYLQLNSLRAEDTAVYYCARGGSDTVLGDWFAYWGQGTLVTVSS VL: DIQLTQSPSSLSASVGDRVTITCRASQSVSPYLAWYQQKPGKAPKLLIYDASSLESGVPSRFSGSGSGTDFTLTISSLQPEDFATYYCQQGYSLWTFGQGTKVEIKR | – |
